Source: the RNAGym collection of RNA variant scans (doi:10.7554/elife.90254)
The source gives no read counts; variants with many changes may rest on few reads.

B1: LINE1-mini (parent)
chain: GGCAGAGCUCAACACAGCGUGGCAAAGUGGCUGUGGCUAGACUGCC

Variants of: B1
Experiment: self-cleavage, relative activity (ratio to wild type); higher = more cleavage; in vitro, sequencing; the parent is a self-cleaving ribozyme

Row | Variant | self-cleavage
1 | A6C C8U C10G A16G U28G | 0.03
2 | A6C C8U C13G G21U G22C G40U | 0.04
3 | A6C C8U G30U G35U A41C U43A C46A | 0.05
4 | A6C C8U G36A C45A | 0.07
5 | A6C C10A A11C G30U G44U C45U | 0
6 | A6C C10A A12C A26C U34C | 0.01
7 | A6C C10A A12G C31U | 0.01
8 | A6C C10A A16C G33C | 0.03
9 | A6C C10A A16G A39C | 0.08
10 | A6C C10A A25C G29C C45G | 0.08
11 | A6C C10A A25G | 0.01
12 | A6C C10A A39G | 0.03
13 | A6C C10A C13G | 0.01
14 | A6C C10A C18U U38A | 0.08
15 | A6C C10A C31A A41U | 0.02
16 | A6C C10A C37A | 0.01
17 | A6C C10A C45G | 0.05
18 | A6C C10A C46A | 0.07
19 | A6C C10A G21A U28G | 0.01
20 | A6C C10A G22A A25C G29C C45A | 0.01
21 | A6C C10A G22U G44U | 0.03
22 | A6C C10A G27C C46U | 0.02
23 | A6C C10A G29A | 0
24 | A6C C10A G30C G40C | 0.01

Row | Variant | self-cleavage
25 | A6C C10A U28A C46U | 0.02
26 | A6C C10A U28A U43G | 0.07
27 | A6C C10A U28C U38C | 0
28 | A6C C10A U34C C42U | 0.07
29 | A6C C10G A12C C15G A16C C18A G19A A41U | 0.02
30 | A6C C10G C13U G40U | 0.02
31 | A6C C10G C15A G27U C46G | 0.01
32 | A6C C10G C31G C42G U43G | 0
33 | A6C C10G G17U G19A U34G C42A G44A | 0
34 | A6C C10G G19A G35C G36A | 0.01
35 | A6C C10G G19U | 0.03
36 | A6C C10G G30C | 0.01
37 | A6C C10U A41G | 0.02
38 | A6C C10U C15G C31A | 0.05
39 | A6C C10U C31U | 0.03
40 | A6C C10U G17A U34A G36U | 0.06
41 | A6C C10U G21C C37U | 0.02
42 | A6C C10U G21C G22U A24G G40C | 0
43 | A6C C13A A16G A25C | 0.07
44 | A6C C13A A41U | 0.1
45 | A6C C13A C15A | 0.06
46 | A6C C13A C15G A24C | 0.02
47 | A6C C13A C31G | 0.09
48 | A6C C13A G17U | 0.18

Row | Variant | self-cleavage
49 | A6C C13A U34C | 0.06
50 | A6C C13G U38G | 0.01
51 | A6C C13U A25U | 0.06
52 | A6C C13U G22A G35U A41G | 1.37
53 | A6C C13U U28A | 0.09
54 | A6C C15A G17U | 0.02
55 | A6C C15A G21A | 0.06
56 | A6C C15G C46A | 0.02
57 | A6C C15G G19A C37G G44U | 0.01
58 | A6C C15G G19U G22U C45A | 0.02
59 | A6C C15G G19U G44A | 0.03
60 | A6C C15G G27A U32G C45G | 0.02
61 | A6C C15G G27U G33C G36U G40U | 0.33
62 | A6C C15G G29U | 0.03
63 | A6C C15G U20A A39U | 0.02
64 | A6C C15U A25G A26C G33U | 0.24
65 | A6C C15U G40A | 0.04
66 | A6C C15U U34A | 0.11
67 | A6C C18A A24C A25U G36C C46U | 0.06
68 | A6C C18A A25U C46A | 0.05
69 | A6C C18A A39G | 0.04
70 | A6C C18A C46A | 0.13
71 | A6C C18A G19C G27A C46A | 1.4
72 | A6C C18A G19U | 0.04

Row | Variant | self-cleavage
73 | A6C C18G G22U U43C | 0.04
74 | A6C C18G G40A C42A | 0.09
75 | A6C C18U G22U A26C G29U G30C | 0.85
76 | A6C C18U G27A U43A | 0.02
77 | A6C C18U G30A | 1.11
78 | A6C C18U G30C G40U | 0.18
79 | A6C C23A U28A G44U | 0.06
80 | A6C C23G A24C A26U | 1.08
81 | A6C C23G C31G G35U | 0.05
82 | A6C C23G G27C | 0.16
83 | A6C C23G G27U A39G A41C | 0
84 | A6C C23U G29U C37G C42U | 0.01
85 | A6C C23U G30A G40C | 0.07
86 | A6C C31A A39U | 0.02
87 | A6C C31A C45A | 0.04
88 | A6C C31A C46G | 0.05
89 | A6C C31A U43C | 0.01
90 | A6C C31G C42G | 0.03
91 | A6C C31G U32C U38A C42A | 0.01
92 | A6C C37A A41G | 0.03
93 | A6C C37A C42U | 0.06
94 | A6C C37G A39G C42U C46A | 0.03
95 | A6C G7A A11U A24C | 0.01
96 | A6C G7A A16C A25G G33A C45U | 0.01

Row | Variant | self-cleavage
97 | A6C G7A A16G U20C A26U C46A | 0.04
98 | A6C G7A C8G G21A | 0.07
99 | A6C G7A C23U | 0.07
100 | A6C G7A U43A C45U | 0.07
101 | A6C G7C A11C G44U | 0.02
102 | A6C G7C A16G C18U A25U U34A G36C A41U | 0.13
103 | A6C G7C A25U A39U | 0.11
104 | A6C G7C C13U A24G C37U | 0.09
105 | A6C G7C G44C | 0.08
106 | A6C G7U A24C G35U | 0.15
107 | A6C G7U G21C U43A | 0.06
108 | A6C G7U G21U | 0.01
109 | A6C G7U G27A G33A | 0.19
110 | A6C G7U G40A | 0.28
111 | A6C G7U U20G A26G G29C G30C A39U C42A | 0.02
112 | A6C G7U U38C | 0
113 | A6C G17A C31A G36U C42G | 0.01
114 | A6C G17C G30A C42U | 0.13
115 | A6C G17U C37A G44A | 0.04
116 | A6C G17U G22C G27U | 0.41
117 | A6C G17U U20G A26U G27C G30U | 0.07
118 | A6C G17U U43A | 0.08
119 | A6C G19A C23U U32G | 0.1
120 | A6C G19A C31A | 0.21

Row | Variant | self-cleavage
121 | A6C G19A G22C U43G | 0
122 | A6C G19A G27C | 0.35
123 | A6C G19A G30U C46G | 0.36
124 | A6C G19C C23A | 0.1
125 | A6C G19C C23A A25G C46G | 0.64
126 | A6C G19C G33C G40U U43C | 0.04
127 | A6C G19C G44A | 0.06
128 | A6C G19U A25G | 0.49
129 | A6C G19U A25G A41C U43A | 0.01
130 | A6C G19U A25G G27C G29A C42G | 0.02
131 | A6C G19U U28G G40A C46A | 0.2
132 | A6C G19U U38A | 0.08
133 | A6C G21A G22A U32G | 0.18
134 | A6C G21A G36U U38C | 0.12
135 | A6C G21C G29A | 0.28
136 | A6C G21U C23A G44A | 1.47
137 | A6C G21U G22U G29A C42A | 0.07
138 | A6C G21U G27C G33C | 0.01
139 | A6C G21U G30U G40U | 0
140 | A6C G22A A41G | 0.52
141 | A6C G22A C37A | 0.01
142 | A6C G22A G30C U38A | 0.25
143 | A6C G22C C31U | 0.23
144 | A6C G22C G29U C31A G40U | 0.02

Row | Variant | self-cleavage
145 | A6C G22C G33C C37A A41G | 0.1
146 | A6C G22U C23U G44A C45A | 0.03
147 | A6C G22U C31G | 0.03
148 | A6C G22U G33U G36A G44A | 0.04
149 | A6C G22U G35C | 0.04
150 | A6C G22U U32G | 0.06
151 | A6C G27A C37U | 0
152 | A6C G27A G33A G35A G40U | 0.04
153 | A6C G27U U38C | 0.17
154 | A6C G29C C42A | 0.05
155 | A6C G29C C42G | 0.01
156 | A6C G29C C42U | 0.04
157 | A6C G29C G33A G44A | 0.02
158 | A6C G29C G35U G44A | 0.03
159 | A6C G30A C37G | 0.03
160 | A6C G30A G36U G44A | 0.05
161 | A6C G30A G40C | 0.04
162 | A6C G30C G36C G40A G44U | 0.02
163 | A6C G30U C46G | 0.28
164 | A6C G33A A41U | 0.13
165 | A6C G33A G36A C42A | 0.03
166 | A6C G33U A39G | 0.06
167 | A6C G33U G36C | 0.09
